Reference: a compilation of properties of binary mixtures (doi:10.1021/je050387r)
The densities may have been worked out from excess volumes.

Experiment: xn = mol fraction of the nth substance listed
Settings: 101 kPa

O + CCCC[n+]1ccn(C)c1.F[B-](F)(F)F
x1 = 1
Settings	mass density [kg/m3]
343.15 K	977.8
353.15 K	971.8

CCCC[n+]1ccn(C)c1.F[B-](F)(F)F + O
mass density [kg/m3]
Settings	x2 = 0	x2 = 0.1002	x2 = 0.209	x2 = 0.2984	x2 = 0.4001	x2 = 0.5014	x2 = 0.6004	x2 = 0.7	x2 = 0.8	x2 = 0.8999
303.15 K	–	–	–	1188.1	1183.3	1176.2	1167	1154.8	1134.7	–
308.15 K	1195.4	–	–	1184.9	1180.1	1173.1	1163.8	1151.9	1131.9	1095.5
313.15 K	–	–	–	–	1176.7	–	–	1148.7	1128.9	1091.9
318.15 K	1189	1185.3	1181.9	1178	1173	1166.2	–	1144.8	1125	1089.9
323.15 K	1186	1182.3	–	–	–	1162.8	1153.7	1141.4	1121.7	–
333.15 K	1179.8	1175.8	1172.4	–	1163	1155.5	1146.2	1133.1	1114.2	–
343.15 K	1173.5	1169.4	1165.8	–	1156.1	1148.7	–	–	1106.8	–
353.15 K	1167.4	–	1159.5	1155.3	1149.1	1141.7	–	1116.3	1098.1	1064.7
